Reference: PubChem BioAssay AID1468 (National Center for Advancing Translational Sciences (NCATS), 2008)
Values joined by “and” are separate entries in the source; they are usually repeats but may differ in a detail not shown here. Identical values can stand only once. Out of some 280,000 compounds screened, about 1,100 (0.39%) were called active. The inconclusive results got no clear call from the source; some entries with a clear call stand among them for comparison. Calls follow the shape of the dose curve; as a rule, active = well fitted inhibition curve with a large enough effect; inconclusive = small, poorly fitted or top-dose-only effect, or effect the other way; inactive = flat fitted curve, though single readings scatter. Potencies of inconclusive entries are doubtful fits and often do not repeat.

The compounds below were run against Microtubule-associated protein tau (Homo sapiens) (UniProt P10636) (assay: qHTS for Inhibitors of Tau Fibril Formation, Fluorescence Polarization). Settings: K18 P301L tau heparin fibrillization, Alexa594 FP, 6 h; series mostly up to 57.7 µM; activity, negative = inhibition: at the top concentration.
Chain of UniProt P10636 (P10636 whole entry, looked up, the tested form may be a part): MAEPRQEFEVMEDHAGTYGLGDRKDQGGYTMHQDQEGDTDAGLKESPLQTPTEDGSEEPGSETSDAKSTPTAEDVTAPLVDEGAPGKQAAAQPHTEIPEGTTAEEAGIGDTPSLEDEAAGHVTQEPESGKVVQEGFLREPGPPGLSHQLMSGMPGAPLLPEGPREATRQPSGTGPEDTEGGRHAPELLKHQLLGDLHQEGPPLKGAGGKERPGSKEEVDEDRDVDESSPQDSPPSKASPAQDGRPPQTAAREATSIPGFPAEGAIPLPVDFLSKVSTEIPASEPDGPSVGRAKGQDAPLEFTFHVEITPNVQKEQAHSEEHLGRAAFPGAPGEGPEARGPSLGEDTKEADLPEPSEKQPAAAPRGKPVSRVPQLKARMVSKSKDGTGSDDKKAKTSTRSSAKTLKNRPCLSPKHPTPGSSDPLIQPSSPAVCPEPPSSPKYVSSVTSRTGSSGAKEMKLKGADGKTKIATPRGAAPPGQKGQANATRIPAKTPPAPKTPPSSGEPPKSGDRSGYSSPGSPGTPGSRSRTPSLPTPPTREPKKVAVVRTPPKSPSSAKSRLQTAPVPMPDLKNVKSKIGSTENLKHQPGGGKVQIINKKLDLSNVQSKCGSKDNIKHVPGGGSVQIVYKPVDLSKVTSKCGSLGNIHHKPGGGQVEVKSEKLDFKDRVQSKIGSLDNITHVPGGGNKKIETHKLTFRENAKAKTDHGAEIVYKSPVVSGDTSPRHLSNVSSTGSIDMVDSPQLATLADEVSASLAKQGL
Method in brief: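 Human tau K18 […] P301L fragment, 15 uM unlabeled plus 0.24 uM Alexa 594-labeled tau (final), with compound and 20 uM heparin in 100 mM sodium acetate pH 7; 6 hr at 37 C, then Alexa 594 FP read.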
% is scaled to controls: 0 for no effect and ±100 for the full control effect; potency is read from the fitted curve at half-maximal effect; tags tell the direction and shape of the fitted curve.
Also: nearly all actives have a fitted effect of over 55% in size.

Potency, inconclusive:
O=C(CSc1nc(Nc2ccccc2)nc(N2CCOCC2)n1)N1CCc2ccccc21 15.8 µM [inhibitor, partial curve]
Cc1ccccc1NC(=S)N(Cc1ccccc1)Cc1cccs1 0.0251 µM [inhibitor, full curve, poor fit]
O=C(Cn1cc(S(=O)(=O)Cc2cccc(Cl)c2)c2ccccc21)Nc1ccc(F)c(Cl)c1 20 µM [inhibitor, partial curve]
COC(=O)CCCC1=CC2=CC(=O)C(C)(OC(=O)c3ccc(Cl)nc3)C(=O)C2=CO1 (stereo not given) 3.55 µM [inhibitor, partial curve]
COc1ccc(-c2noc(-c3cc(C(C)C)[nH]n3)n2)cc1 17.8 µM [inhibitor, partial curve, poor fit]
Cn1c(=O)cc(OCC(=O)N2CCN(c3ccccc3F)CC2)c2ccccc21 2.82 µM [inhibitor, partial curve, poor fit]
Cc1ccc(C)c(C2C(C#N)=C(N)Oc3cc(C)oc(=O)c32)c1 (stereo not given) 1.58 µM [inhibitor, partial curve]
CCOc1cccc2sc(NC(=O)c3ccc(S(=O)(=O)N4CCc5ccccc54)cc3)nc12 20 µM [inhibitor, partial curve]
Cc1c(/C=N/NC(=O)c2cc(=O)[nH]c(=O)[nH]2)c2ccccn2c1C(=O)c1ccccc1 5.62 µM [activator, partial curve]
COc1ccc(-c2noc(C3CCCN(C(=O)Nc4ccccc4F)C3)n2)cc1 (stereo not given) 2.82 µM [inhibitor, partial curve, poor fit]
Cc1ccc2c(c1)sc1nc(=O)n(-c3cccc(Cl)c3)c(=O)n12 2.24 µM [inhibitor, full curve, poor fit]
O=C(COC(=O)c1cnc(Cl)c(Cl)c1)Nc1ccc(S(=O)(=O)N2CCCC2)cc1 35.5 µM [inhibitor, single point]
CCSc1nnc(Cn2c(=O)sc3ccccc32)n1C 1.12 µM [inhibitor, single point]
COC(=O)C1=C(C(=O)OC)SC2(S1)C(C(=O)OC)=C(C(=O)OC)SC1=C2c2cc(C)ccc2NC1(C)C 12.6 µM [inhibitor, partial curve]
Cc1ccc(-n2c(=O)[nH]c3sc4c(c3c2=O)CCNC4)cc1C 7.08 µM [inhibitor, single point]
O=C(COc1ccccc1F)Nc1ccc2nc(SCc3ccccc3)sc2c1 14.1 µM [inhibitor, partial curve]
COc1ccc(C(=O)N2CCC(=O)N(C(CO)Cc3ccccc3)CC2)cc1 (stereo not given) 2.82 µM [inhibitor, single point]
CCOc1cc(C(=O)N/N=C/C(Br)=C/c2ccccc2)cc(OCC)c1OCC 39.8 µM [inhibitor, single point]
COc1cccc(NS(=O)(=O)c2ccc3[nH]cc(C(=O)NCCc4ccc(C)cc4)c(=O)c3c2)c1 3.98 µM [inhibitor, full curve, poor fit]
C[c-]1[c-](C)[c-](C)[c-](C)[c-]1C.[Fe].c1cc2nccc(N3CCCC3)[c-]2c1 (stereo not given) 25.1 µM [inhibitor, partial curve] and 39.8 µM [inhibitor, single point]
O=C(NCc1cccc2ccccc12)Nc1ccccc1 31.6 µM [inhibitor, single point]
COc1ccc(NC(=O)CC2Nc3cc(C)c(C)cc3NC2=O)c([N+](=O)[O-])c1 (stereo not given) 20 µM [inhibitor, partial curve]
Cn1c(=O)c2[nH]c(-c3ccccc3)c(O)c2n(C)c1=O 25.1 µM [inhibitor, partial curve, poor fit]
COc1ccc(-c2cn[nH]c2-c2ccc(OCc3ccccc3F)cc2O)cc1OC 39.8 µM [inhibitor, single point]
CC(=O)O[C@H]1C2OC(=O)C(C)=C2[C@@H]2OC(=O)[C@]3(CCC4OC41C)OC23 (stereo not given in full) 11.2 µM [inhibitor, partial curve, poor fit]
CN(Cc1ccccc1)C(=O)c1[nH]cnc1C(=O)N[C@@H](Cc1ccccc1)C(=O)OCc1ccccc1 0.794 µM [inhibitor, partial curve]
COC(=O)C1=C(C)NC2=C(C(=O)c3ccccc32)C1c1ccc(-c2ccc(C(=O)O)cc2)o1 (stereo not given) 12.6 µM [inhibitor, partial curve]
COc1ccc(OC)c(/C=C/C(=O)OCC(=O)Nc2ccc(Cl)c(S(=O)(=O)N(C)C)c2)c1 7.94 µM [inhibitor, partial curve]
Nc1c(C(=O)Nc2ccccc2F)sc2nc(Cc3ccccc3)cc(C(F)(F)F)c12 44.7 µM [inhibitor, single point]
CCOc1ccc(NC(=S)NCc2ccc3[nH]c(C)cc3c2)cc1 3.16 µM [activator, partial curve, poor fit]
O=C(Cn1c(=O)c2sccc2n(CC(=O)Nc2ccc(Cl)cc2Cl)c1=O)NCCc1ccccc1 12.6 µM [inhibitor, partial curve]
COc1cccc(C(=O)c2cn(CC(=O)Nc3cccc(Cl)c3C)c3nc(C)ccc3c2=O)c1 17.8 µM [inhibitor, partial curve]
Cc1ccc(NC(=O)c2nc[nH]c2C(=O)N[C@@H](CCCCNC(=O)OC(C)(C)C)C(=O)OC(C)(C)C)cc1 28.2 µM [inhibitor, partial curve]
CC(=O)Nc1nc(C)c(-c2csc(Nc3cccc([N+](=O)[O-])c3)n2)s1 12.6 µM [inhibitor, partial curve]
COc1cccc(NC(=O)CSc2nnc(NC(=O)NC3CCCCC3)s2)c1 12.6 µM [inhibitor, partial curve]
COC(=O)c1ccccc1NC(=S)N(Cc1ccc2c(c1)OCO2)Cc1cc2ccc(C)cc2[nH]c1=O 14.1 µM [inhibitor, partial curve, poor fit]
COc1ccccc1/C=C/C=c1\sc2nc(=O)c(Cc3ccccc3)nn2c1=O 20 µM [inhibitor, partial curve, poor fit]
O=C(Nc1cccc(Cl)c1)C1=Cc2cc(Cl)ccc2OC1 20 µM [inhibitor, partial curve]
Cn1c(=O)c2c(nc(SCCN3CCOCC3)n2Cc2ccccc2Cl)n(C)c1=O 11.2 µM [activator, partial curve, poor fit]
COC(=O)c1cccc(NC(=O)c2ccc(OC)c(Cl)c2)c1 22.4 µM [inhibitor, single point]
CCOC(=O)c1cnc2c(C)cc(C)cc2c1Nc1ccc(N2CCOCC2)cc1 17.8 µM [inhibitor, partial curve]

Potency, active:
CCOC(=O)C1(C)C=C(Nc2ccc(O)cc2)C(=O)N1c1ccc(O)cc1 (stereo not given) 28.2 µM

activity, negative = inhibition, inactive:
O=C(NCc1ccccc1F)c1cccc(NC(=O)N2CCSc3ncccc32)c1 -3.46%
CCN1CCc2c(sc(NC(=O)CSc3ccccc3)c2-c2nc3ccccc3s2)C1 -6.52%
O=C(/C=C/c1ccc(OC(F)F)cc1)OCC(=O)N1CCN(C(=O)c2ccco2)CC1 -3.9%
COc1ccc(CN2CCN(c3ncnc4sc5c(c34)CCCC5)CC2)cc1F 1.39%
Cc1ccc(NC(=O)CN2CCN(C3CCCCC3)C(=O)C2=O)cc1C -5.96%
COc1ccc(CCNC(=O)COC(=O)Cc2cccc3ccccc23)cc1 2.41%
CCC(=O)N1CCc2cc(S(=O)(=O)NCCC(=O)Nc3cccc(SC)c3)ccc21 -9.1%
O=C(Cc1cccs1)NCc1ccc2c(c1)OCO2 2.69%
C=CC[n+]1c(-c2ccc(OC)cc2)csc1NNC(=O)Nc1ccccc1 0.756%
S=C1NCN(Cc2ccco2)CN1c1cccc2ccccc12 2.46%
CSc1ccccc1N=CC1=C(O)CC(C)(C)CC1=O 5.09%
CC(C)C(=O)NC(=S)N1CCc2ccccc21 5.13%
Cn1ncc(Cl)c1C(=O)N1CCN(C(=O)c2ccco2)CC1 2.48%
CC1CCCC/C1=N\NS(=O)(=O)c1ccc(Br)cc1 (stereo not given) -2.79%
O=C1C2C3C=CC(CC3)C2C(=O)N1/N=C/c1c[nH]c2ccccc12 (stereo not given) 6.45%
COc1ccc(O[C@H]2C=C[C@@H](c3ccccc3)O[C@H]2COC(=O)CC/C(C)=N\O[C@@H](C)CN2CCCCc3nc(C)c(C)cc32)cc1 1.3% [at 11.6 µM]
O=C(COC(=O)Cc1ccc(-c2ccccc2)cc1)NCc1ccc(F)cc1 -4.55%
CCCOc1ccccc1C(=O)Nc1nc2c(s1)CCCC2 -4.16%
COc1ccc(C(=O)N2CCN(Cc3cc(OC)c(O)c(OC)c3)CC2)cc1OC 0.743%
CCc1ccccc1N1CC(c2nc3ccccc3n2CCC2CCCCC2)CC1=O (stereo not given) -9.83%
CCOc1ccc(S(=O)(=O)Nc2nc3ccc(OC)cc3s2)cc1 4.72%
CN(C)C(=O)CCC(=O)N1CCCC(C(=O)c2ccc3c4c(cccc24)CC3)C1 (stereo not given) -1.59%
O=C1c2ccccc2C(Nc2ccc(Cl)cn2)N1c1cccnc1 (stereo not given) -2.57%
